Source: PubChem BioAssay AID624171 (National Center for Advancing Translational Sciences (NCATS), 2012)
The campaign covered roughly 410,000 compounds. About 1,200 (0.29%) were called active. The inconclusive results got no clear call from the source; some entries with a clear call stand among them for comparison. Calls come from the whole dose curve; as a rule, active = well fitted activation curve with a large enough effect; inconclusive = small, poorly fitted or top-dose-only effect; inactive = flat fitted curve, though single readings scatter. Potencies of inconclusive entries are doubtful fits and often do not repeat.

test: qHTS of Nrf2 Activators; conditions: AREc32 ARE-luciferase reporter (MCF7-derived line), luminescence, 24 h; activation: at 46.1 µM (top of the series); note: nearly all actives have a fitted effect of over 65% in size; for activation: % of control where 0% means no effect
How it was run: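 Each well held 1000 AREc32 cells, which were incubated with compound for 24 hr at 37 deg C after overnight attachment, and ARE reporter activity was quantified by firefly luciferase luminescence.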
Potency is the fitted concentration of half-maximal effect; tags give direction and shape of the fitted curve.

Potency, inactive:
CCC(C)Sc1ccc(-c2nc3cnccn3c2NC2CCCCC2)cc1 (stereo unspecified)

Potency, active:
N#C/C(=C/c1ccc(N2CCOCC2)o1)c1ccc(Br)cc1 11.2 µM
COc1ccc(C(=O)N/N=C/C(Br)=C/c2ccccc2)cc1 15.8 µM

Potency, inconclusive:
CCOc1cc(/C=C/c2ccc3cccc([N+](=O)[O-])c3n2)cc(Cl)c1O 4.47 µM [activator, partial curve, poor fit]
O=C(NCc1ccco1)c1cc(-c2cccs2)on1 8.91 µM [activator, partial curve]
Oc1c(Br)cc(Br)cc1-c1nc2ccccc2s1 11.2 µM [activator, partial curve, poor fit]
Cc1[nH]c2ccccc2c1N=Nc1ccccc1C(=O)O 2 µM [activator, full curve, poor fit]
O=C(CC(Nc1ccccc1)C(=O)O)c1ccccc1 (stereo unspecified) 17.8 µM [activator, single point]
CC(C)c1ccc(/C=C(\c2nc3ccccc3[nH]2)S(=O)(=O)c2ccccc2)cc1 3.55 µM [activator, partial curve, poor fit]
Cc1ccc([N+](=O)[O-])cc1N=C1C(=O)Nc2ccccc21 17.8 µM [activator, single point]
COc1cc(/C=C/c2cc(C(F)(F)F)[nH]c(=O)n2)cc(OC)c1OC 10 µM [activator, partial curve]
COc1ccccc1-c1nc(-c2ccc(Br)o2)no1 1.78 µM [activator, full curve, poor fit]
O=C(CSc1nnc(-c2cnccn2)n1Cc1ccco1)c1ccc(Cl)cc1 25.1 µM [activator, single point]

activation, inactive:
Cc1ccc(Cl)cc1NC(=O)CN(C)S(=O)(=O)c1ccc2c(c1)n(C)c(=O)c(=O)n2C 2.96%
CCOc1ccc2c(c1)C(C)=CC(C)(C)N2C(=O)Nc1ccccc1 28.5%
CCOC(=O)CNC(=O)Nc1ccccc1C(=O)OC 0.244%
C[C@H](O)[C@@H]1C(=O)N2CCc3ccc(N4CCN(C)CC4)cc3[C@@H]2C[C@@H]1N(C)C(=O)c1ccco1 0.285%
Cc1ccc(C(=O)Nc2ccc(Cl)c(-c3nc4ncccc4o3)c2)c(C)c1 6.79%
O=C(Nc1ccc(F)cc1)[C@H](Cc1ccccc1)N1Cc2ccccc2C1=O 3.36%
C/C(CCCO)=N/Nc1ccc([N+](=O)[O-])cc1[N+](=O)[O-] 4.12%
CC(Sc1nc2ccccc2c(=O)n1CC1CCCO1)C(=O)N(C)Cc1ccccc1 (stereo unspecified) -0.234%
